Data from paper PMC12820563, “FoxP3 forms a head-to-head dimer in vivo and stabilizes its multimerization on adjacent microsatellites”.
This is one part of the list.

These sequences were tested against T1, MBP-FoxP1dN (Mus musculus, UniProt P58462 326-579) (assay: PD-seq (MBP pull-down with sequencing); 20 mM Tris-HCl pH 7.5, 100 mM NaCl, 1.5 mM MgCl2, 0.4 uM protein, 0.1 uM dsDNA library, 30 min, room temperature, amylose pull-down; high values mean tight binding). Conditions: protein: recombinant; tags: His6-MBP; chain copies: 2; dsDNA, one strand shown.
T1 sequence: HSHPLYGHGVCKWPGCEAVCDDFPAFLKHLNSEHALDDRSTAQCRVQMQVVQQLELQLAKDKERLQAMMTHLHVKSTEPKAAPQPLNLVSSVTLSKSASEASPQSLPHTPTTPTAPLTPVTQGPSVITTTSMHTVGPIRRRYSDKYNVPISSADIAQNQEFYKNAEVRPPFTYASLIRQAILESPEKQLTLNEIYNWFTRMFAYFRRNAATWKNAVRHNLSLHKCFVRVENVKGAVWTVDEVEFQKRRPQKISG
In short: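 A degenerate double-stranded DNA library, filled in with Klenow, was added at 0.1 µM to 0.4 µM His6-MBP-tagged mouse FoxP3 or FoxP1 fragment lacking the N-terminus, expressed in E. coli. Incubation lasted 30 min at room temperature in Tris pH 7.5 buffer with NaCl and MgCl2, after which complexes were collected on amylose resin, washed three times, digested with proteinase K to free the DNA, barcoded by PCR and sequenced by Illumina. Binding is the pooled-replicate reads-per-million enrichment of pull-down over input.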
With “GATGATTGTTCTCCCAGCTGATGAATTATCTTAGTCGAGTAAACAAATTTTCCTAATCTTTCTGTTCAAGCGCCATCTAC” the binding signal was 0.964 RPM ratio (pull-down/input). In the case of “GATGATTGTTCTCCCAGCTGATGAATTCAGTGAGTCGAGTAAACAAATTTTCCTAATCTTTCTGTTCAAGCGCCATCTAC”, the binding signal is reported as 0.862 RPM ratio (pull-down/input). In the case of “GATGATTGTTCTCCCAGCTGATGAATTTAGCACATCGAGTAAACAAATTTTCCTAATCTTTCTGTTCAAGCGCCATCTAC”, the binding signal is reported as 1.06 RPM ratio (pull-down/input). With “GATGATTGTTCTCCCAGCTGATGAATTAGCCCTGTCGAGTAAACAAATTTTCCTAATCTTTCTGTTCAAGCGCCATCTAC” the binding signal was 0.818 RPM ratio (pull-down/input). In the case of “GATGATTGTTCTCCCAGCTGATGAATTGATGCGGTCGAGTAAACAAATTTTCCTAATCTTTCTGTTCAAGCGCCATCTAC”, the binding signal is reported as 1.39 RPM ratio (pull-down/input). For “GATGATTGTTCTCCCAGCTGATGAATTTAAGAGTTCGAGTAAACAAATTTTCCTAATCTTTCTGTTCAAGCGCCATCTAC”, the binding signal was 0.82 RPM ratio (pull-down/input). In the case of “GATGATTGTTCTCCCAGCTGATGAATTCCGGCAATCGAGTAAACAAATTTTCCTAATCTTTCTGTTCAAGCGCCATCTAC”, the binding signal is reported as 0.982 RPM ratio (pull-down/input). In the case of “GATGATTGTTCTCCCAGCTGATGAATTCTATGCATCGAGTAAACAAATTTTCCTAATCTTTCTGTTCAAGCGCCATCTAC”, the binding signal is reported as 1.24 RPM ratio (pull-down/input). In the case of “GATGATTGTTCTCCCAGCTGATGAATTGGTGGCTTCGAGTAAACAAATTTTCCTAATCTTTCTGTTCAAGCGCCATCTAC”, the binding signal is reported as 0.906 RPM ratio (pull-down/input). “GATGATTGTTCTCCCAGCTGATGAATTAAGAATTTCGAGTAAACAAATTTTCCTAATCTTTCTGTTCAAGCGCCATCTAC” was tested, and the binding signal was 0.887 RPM ratio (pull-down/input). “GATGATTGTTCTCCCAGCTGATGAATTGAAGGAATCGAGTAAACAAATTTTCCTAATCTTTCTGTTCAAGCGCCATCTAC” was tested, and the binding signal was 0.885 RPM ratio (pull-down/input). “GATGATTGTTCTCCCAGCTGATGAATTTGTCAAGTCGAGTAAACAAATTTTCCTAATCTTTCTGTTCAAGCGCCATCTAC” was tested, and the binding signal was 0.975 RPM ratio (pull-down/input). With “GATGATTGTTCTCCCAGCTGATGAATTGAGATGGTCGAGTAAACAAATTTTCCTAATCTTTCTGTTCAAGCGCCATCTAC” the binding signal was 0.817 RPM ratio (pull-down/input). In the case of “GATGATTGTTCTCCCAGCTGATGAATTCCCAAAATCGAGTAAACAAATTTTCCTAATCTTTCTGTTCAAGCGCCATCTAC”, the binding signal is reported as 1.07 RPM ratio (pull-down/input). “GATGATTGTTCTCCCAGCTGATGAATTACCGTTGTCGAGTAAACAAATTTTCCTAATCTTTCTGTTCAAGCGCCATCTAC” was tested, and the binding signal was 1.12 RPM ratio (pull-down/input). For “GATGATTGTTCTCCCAGCTGATGAATTTTATCTTTCGAGTAAACAAATTTTCCTAATCTTTCTGTTCAAGCGCCATCTAC”, the binding signal was 0.896 RPM ratio (pull-down/input). In the case of “GATGATTGTTCTCCCAGCTGATGAATTTGGACTGTCGAGTAAACAAATTTTCCTAATCTTTCTGTTCAAGCGCCATCTAC”, the binding signal is reported as 0.834 RPM ratio (pull-down/input). “GATGATTGTTCTCCCAGCTGATGAATTTACGGCGTCGAGTAAACAAATTTTCCTAATCTTTCTGTTCAAGCGCCATCTAC” was tested, and the binding signal was 1.02 RPM ratio (pull-down/input). “GATGATTGTTCTCCCAGCTGATGAATTGTCCGCATCGAGTAAACAAATTTTCCTAATCTTTCTGTTCAAGCGCCATCTAC” was tested, and the binding signal was 1.15 RPM ratio (pull-down/input). In the case of “GATGATTGTTCTCCCAGCTGATGAATTGAGGCCGTCGAGTAAACAAATTTTCCTAATCTTTCTGTTCAAGCGCCATCTAC”, the binding signal is reported as 0.854 RPM ratio (pull-down/input). For “GATGATTGTTCTCCCAGCTGATGAATTCTCTTGGTCGAGTAAACAAATTTTCCTAATCTTTCTGTTCAAGCGCCATCTAC”, the binding signal was 0.807 RPM ratio (pull-down/input). With “GATGATTGTTCTCCCAGCTGATGAATTTTTGATTTCGAGTAAACAAATTTTCCTAATCTTTCTGTTCAAGCGCCATCTAC” the binding signal was 1.33 RPM ratio (pull-down/input). In the case of “GATGATTGTTCTCCCAGCTGATGAATTGCTTGCGTCGAGTAAACAAATTTTCCTAATCTTTCTGTTCAAGCGCCATCTAC”, the binding signal is reported as 1.16 RPM ratio (pull-down/input). With “GATGATTGTTCTCCCAGCTGATGAATTTAGACCATCGAGTAAACAAATTTTCCTAATCTTTCTGTTCAAGCGCCATCTAC” the binding signal was 0.985 RPM ratio (pull-down/input). For “GATGATTGTTCTCCCAGCTGATGAATTTACCGTCTCGAGTAAACAAATTTTCCTAATCTTTCTGTTCAAGCGCCATCTAC”, the binding signal was 1.07 RPM ratio (pull-down/input). In the case of “GATGATTGTTCTCCCAGCTGATGAATTTGTCAATTCGAGTAAACAAATTTTCCTAATCTTTCTGTTCAAGCGCCATCTAC”, the binding signal is reported as 1.35 RPM ratio (pull-down/input). For “GATGATTGTTCTCCCAGCTGATGAATTGTGGGAATCGAGTAAACAAATTTTCCTAATCTTTCTGTTCAAGCGCCATCTAC”, the binding signal was 1.08 RPM ratio (pull-down/input). “GATGATTGTTCTCCCAGCTGATGAATTGGCACACTCGAGTAAACAAATTTTCCTAATCTTTCTGTTCAAGCGCCATCTAC” was tested, and the binding signal was 0.934 RPM ratio (pull-down/input). In the case of “GATGATTGTTCTCCCAGCTGATGAATTAGGGCCCTCGAGTAAACAAATTTTCCTAATCTTTCTGTTCAAGCGCCATCTAC”, the binding signal is reported as 0.865 RPM ratio (pull-down/input). For “GATGATTGTTCTCCCAGCTGATGAATTCCACCTCTCGAGTAAACAAATTTTCCTAATCTTTCTGTTCAAGCGCCATCTAC”, the binding signal was 0.801 RPM ratio (pull-down/input). For “GATGATTGTTCTCCCAGCTGATGAATTTTACTGTTCGAGTAAACAAATTTTCCTAATCTTTCTGTTCAAGCGCCATCTAC”, the binding signal was 0.897 RPM ratio (pull-down/input). In the case of “GATGATTGTTCTCCCAGCTGATGAATTTCGTGCGTCGAGTAAACAAATTTTCCTAATCTTTCTGTTCAAGCGCCATCTAC”, the binding signal is reported as 0.941 RPM ratio (pull-down/input).
